± gives the standard deviation of the averaged measurements. This is one part of the list.
tested on: PfAP2-I AP2 domain 3 (GST-tagged); assay: gcPBM binding intensity (ln(normalized median fluorescence intensity)); higher = stronger DNA binding
In short: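 The highest Masliner-normalised natural-log median intensity across replicate spots of either probe orientation is reported as binding intensity. GST-tagged P. falciparum DNA-binding domains expressed in E. coli were applied for 1 h to an Agilent 4 × 180k array of primer-extended double-stranded 36-bp intergenic genomic probes plus negative controls, and bound protein was detected with Alexa488 anti-GST antibody and scanned at 488 nm.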

Row | Sequence | gcPBM binding intensity (ln)
1 | TTATTATATACAAAATGTACACAGAATAATTTGAAT [XGTACX_site2314] | 7.84 ± 0.43
2 | ATATATATATATATATGTACATAATATATTATATAT [XGTACX_site924] | 9.24 ± 0.67
3 | TTTTTTTTTTTTTTGGTGCAGTTCACATATTATATA [GTGCAC_site9996] | 10.2 ± 0.78
4 | ATTTTTTTTTAATGCAATATATTTTGAAAATTTTAT [CACACA_negctrl_site753] | 8.62 ± 0.27
5 | TTTTTTTTTTTTTTTACACACTTTATTCAAACAACT [CACACA_site4104] | 8.2 ± 0.67
6 | TAATATCTTGAGTCATCACACATTGATTAATGAATC [CACACA_site5735] | 7.27 ± 0.54
7 | TGAATACAGATATTCACACAAATAGTTTTGATATAT [CACACA_site5527] | 7.32 ± 0.68
8 | AAAAAAATATATAATAGTACATATATAGGAATATAT [XGTACX_site4591] | 7.58 ± 0.6
9 | CTTTTTTTTTTTTTTGCACACACATATATAAATATA [CACACA_site3950] | 9.74 ± 0.042
10 | AGTGGAAATTTTATTTGTACATAAATATTTACATAC [XGTACX_site633] | 7.92 ± 0.55
11 | CTTTCTCTCAAAATGACATGCAATTTGTTTCTTTTT [TGCATGCA_site169] | 7.63 ± 0.93
12 | ATATATATATATATTTGTACTTAATTGATTTTACTT [XGTACX_site2663] | 9.27 ± 0.22
13 | ATGCGTTTAGCAAAAAGTACATATATATATAATATT [XGTACX_site1928] | 7.82 ± 0.49
14 | TTGAAATACTTTATTTGTACATATAGCAAAGTGTAT [XGTACX_site8782] | 7.91 ± 0.52
15 | ATTTTTTCTAGACATGCATGTGAAATTTACTTTTTT [TGCATGCA_site305] | 7.59 ± 0.7
16 | ATTATTGATTTATAAACACACACTCGAAGATGTTTA [CACACA_site8294] | 7.58 ± 0.53
17 | ACATATTGTAGATATTGTACATATTGTGTATATATT [XGTACX_site7620] | 7.72 ± 0.47
18 | AATATGGAATGAAATAACAATCGGGAGTATATTACC [CACACA_negctrl_site93] | 7.97 ± 0.6
19 | TATATATATGTTCTTACACACACGAATATATATATG [CACACA_site3304] | 7.98 ± 0.55
20 | TTTTTTTTTTTTTTTTTTTTTTTTTCATATTAATAT [GTGCAC_negctrl_site351] | 8.21 ± 0.87
21 | TTGGCATACAGACACACACACACACCCCCACATATA [CACACA_site590] | 8.99 ± 0.23
22 | ATTGATACATCCAATACACACTACATATTATGATGT [CACACA_site6965] | 7.72 ± 0.56
23 | AATTTATTAAAAAAATGTACTTATTTTTTTGTATAA [XGTACX_site5844] | 7.61 ± 0.11

Row | Sequence | gcPBM binding intensity (ln)
24 | TCCTTACATTTTAAAACACACAAAAATTAATTGTTA [CACACA_site2313] | 7.89 ± 0.37
25 | AAAAAATAGTGGTATGCATGTCCCTTGTATTTTCTT [TGCATGCA_site587] | 7.96 ± 0.91
26 | TACTTTTATATGAATACACACAGGAATATAAATATG [CACACA_site7647] | 7.7 ± 0.59
27 | TGGATACACAAAAATTAAAAAAATAAACAAACAAAT [GTGCAC_negctrl_site105] | 7.84 ± 0.52
28 | AAAATACCCATTTTAGTACACACTTAAAAAATTATT [CACACA_site8966] | 7.87 ± 0.47
29 | ACCACCAGGAACAAAGCACATTAGGAAAAATAAAAC [XGTACX_negctrl_site228] | 8.29 ± 0.59
30 | TATAAAAAATTAAAATTTTTCTTATTTTTTTTAGAT [TGCATGCA_negctrl_site125] | 7.33 ± 0.33
31 | CATACATATATTATTGCACACATATAAAATACCCCC [CACACA_site9292] | 10.5 ± 0.45
32 | TACCAATAAATGAAGGTGCGTGCTTGCCTTTGCTAT | 8.06 ± 0.73
33 | TTGAATAAATTGGAATAAATATAATAAAATAAGGAA [XGTACX_negctrl_site302] | 7.79 ± 0.48
34 | TTGTATAGTCTGATATGTACATATATATATATATAA [XGTACX_site4307] | 7.96 ± 0.36
35 | TAGGAATTTAATAAATGTACATATACATAATATATA [XGTACX_site3672] | 7.45 ± 0.45
36 | TATATATTTTTTAATTGTACACTTCAAAAACAAAAA [XGTACX_site5595] | 7.83 ± 0.18
37 | ATAATCAACATTAGGTGTACAAAATATGTATGTTTT [XGTACX_site6696] | 8 ± 0.59
38 | AGAATAAATAAATATTGTACATATAAAATATATATA [XGTACX_site896] | 7.87 ± 0.64
39 | TTCAAATTTCCACATACACACCTTGTAGATATATAT [CACACA_site7984] | 7.97 ± 0.49
40 | AAAAACTTAATATTGACACACATTTTTAAGAATAAT [CACACA_site4291] | 7.5 ± 0.59
41 | ATTGAACACATCTATGCATGCACGGAAAAAAGTACA [TGCATGCA_site401] | 11 ± 0.28
42 | TATGCAATATATTATATTCTGTAAATATTATATATT [TGCATGCA_negctrl_site67] | 7.55 ± 0.37
43 | TTTTTTAAAATATGGACACACATATATATATCTGTA [CACACA_site5535] | 7.73 ± 0.47
44 | TAATATTTCATTAGGTGTACACTACATAGTAGTAGA [XGTACX_site366] | 7.96 ± 0.16
45 | TATAAATATTTTATTGTACACACTTTTTATGAATGA [CACACA_site3136] | 8.14 ± 0.29
46 | GTTTGTTTGTTTGTTCGTACATATATAAAATAAAAA [XGTACX_site4731] | 8.28 ± 0.58

Row | Sequence | gcPBM binding intensity (ln)
47 | TATATAACTAAAATAACACACATATATAAAAATATA [CACACA_site7416] | 7.5 ± 0.46
48 | ATTATAACACTTATTTCATTTGTATGCCCTTTAAAA [CACACA_negctrl_site955] | 8.09 ± 0.73
49 | AGACCTATGATATATACACACATATATTTATTTATA [CACACA_site6630] | 7.77 ± 0.55
50 | TATATATATATACCAACACACATACATATATATATA [CACACA_site8530] | 9.45 ± 0.23
51 | TAAAAAATAAAAATTGCACACTAAAAAATTACGCAC [CACACA_site9129] | 9.64 ± 0.057
52 | AAGTATAAATTAAAATGTACTTATAAAAAAAAAGAA [XGTACX_site7028] | 8.12 ± 0.37
53 | TGTCACATAATTTATGCACACAATGATTATGCTTAA [CACACA_site2358] | 9.63 ± 0.16
54 | CCATATTTCATTAATGAACACACAAAGAGGTATATA [CACACA_site8431] | 7.88 ± 0.47
55 | ACATATATTGTACATACACACCTATATAAATATCCT [CACACA_site7503] | 8.24 ± 0.54
56 | TATGTATGTATGTATGCATGTGTAACACCTAAATAT [TGCATGCA_site361] | 8.39 ± 0.64
57 | ACATATATATATATGTGTACATATTTATACAACAAT [XGTACX_site6660] | 8.22 ± 0.13
58 | AAAAATAAAATATATACACACATATATATATATATA [CACACA_site2943] | 9.4 ± 0.33
59 | TTTTTAATTTTGTGGGTGCTTTCGTGTTATTATATA | 9.415 ± 0.021
60 | AGGAAATTTGTTATTGCACACAAATTTTTCTTTTTT [CACACA_site8732] | 10.1 ± 0.29
61 | AATGTCAGTATGCGAGGTACACGTATAAAAATTACA [XGTACX_site4109] | 7.92 ± 0.54
62 | TATTATAATAAACCTATACACACATAAATAAATAAA [GTGCAC_negctrl_site627] | 7.81 ± 0.57
63 | TACATAAATTAAAACACACACACACTAGAAAAAAAA [CACACA_site5278] | 8.29 ± 0.23
64 | TTTTACTAAATATATACACACATTATACAGATATAT [CACACA_site5765] | 7.79 ± 0.6
65 | TTTGGGTATACACATACATGCATGTCCTTATATATA [TGCATGCA_site84] | 7.86 ± 0.63
66 | ATATCATAAATTTATGCATGTTCTTTCTTCAACTCT [TGCATGCA_site992] | 7.86 ± 0.88
67 | TTTTTTTTTTCTCTCGCACACATTTTTTAAAATGAG [CACACA_site2607] | 8.38 ± 0.76
68 | AGTAGGCATATTGGTTGTACAAAAAAATTATGCACC [XGTACX_site8925] | 11.2 ± 0.61
69 | GACTCTTAAAAAATTTGTACCCACATAAATAATATA [XGTACX_site4313] | 8.02 ± 0.31

Row | Sequence | gcPBM binding intensity (ln)
70 | ATATTTATATAGATGTGTACATAAATATAATAACAT [XGTACX_site1681] | 8.18 ± 0.42
71 | ATATATATATATGTTTATTTATTTGAACGATTGTGG [CACACA_negctrl_site828] | 9.4 ± 0.56
72 | ATAATATAATATATATGTACACATCCTTTTTGTGTA [XGTACX_site2879] | 7.82 ± 0.38
73 | TAAAAGTAAAAAGGTAGTACCTAAATAATATATATA [XGTACX_site8399] | 8.4 ± 0.68
74 | TATATATCCTCTGAATGTACTTGTTTAATAATGTAG [XGTACX_site4332] | 7.63 ± 0.33
75 | TGTGTAATATTCTGTTGTACATAACTCATAAATAAA [XGTACX_site5308] | 7.95 ± 0.31
76 | ATAAGATAGGCATATACACACATTTATTTACAGATA [CACACA_site5754] | 7.71 ± 0.67
77 | GAATAAAAAATTGGCACACATAAATATATGGATATA [CACACA_site3047] | 8.01 ± 0.39
78 | TTCAACATATTAAAAAGTACAGAATATAACATTATA [XGTACX_site1361] | 7.72 ± 0.33
79 | AATAAATTTAGACACACACACACATATAAATAAATA [CACACA_site6531] | 7.96 ± 0.47
80 | TATACGTGAATGACAGTGCATTTCAAAAGTATAAAA [GTGCAC_site9887] | 9.93 ± 0.33
81 | ATTAGTGACATTATTACACACAAAAGAAAACAGAAA [CACACA_site3984] | 8.11 ± 0.52
82 | TGAATCTATATACAGGTGCGTAAAAAATAACTTATA | 10 ± 0.31
83 | CAAGAATTAAAATAAAGTACAAAAGTAACAACTTTT [XGTACX_site1474] | 7.54 ± 0.53
84 | AAAAAAAAGGAAAAGGGTACAAAACCATACTTACAT [XGTACX_site4783] | 7.74 ± 0.76
85 | TTATCATTACATGAGTGTACATTATTATATTTTTTT [XGTACX_site7845] | 7.75 ± 0.5
86 | TAAAGATATAAATGCACACGTATTAAAAAAAAAATA [CACACA_site952] | 9.39 ± 0.49
87 | ATATATTTTTTTTTTTGTACGTATATTTATATAATT [XGTACX_site8719] | 7.95 ± 0.81
88 | GAAAGAAAGAAAGAAAGTACATATAAAAATATACAT [XGTACX_site7299] | 7.63 ± 0.49
89 | ATGATAGTAATTAATAGTACTTTTTTTGATACAAAA [XGTACX_site4288] | 7.61 ± 0.4

Reference: the supplement of paper PMC11417369
